# Test results published in the supplement of paper PMC4604168 (melanoma cell lines).
# The other results are listed elsewhere or left out. Repeats are few or missing, and single values can be far off.
# What was measured:
# Experiment in all cases: cell count relative to DMSO control; melanoma cells; higher = more viable cells
# MZ2-MEL = details: library dose: low library concentration; 72 h
# MeWo = details: library dose: low library concentration; 72 h
# RPMI7951 = details: library dose: low library concentration; 72 h
# RVH-421 = details: library dose: low library concentration; 72 h
# SkMel28 = details: library dose: low library concentration; 72 h
# SkMel30 = details: library dose: low library concentration; 72 h
# UACC62 = details: library dose: low library concentration; 72 h
# WM115 = details: library dose: low library concentration; 72 h
# WM1716 = details: library dose: low library concentration; 72 h
# WM1745 = details: library dose: low library concentration; 72 h
# WM3526 = details: library dose: low library concentration; 72 h
# WM3619 = details: library dose: low library concentration; 72 h
# WM451Lu = details: library dose: low library concentration; 72 h
# SkMel2 = details: library dose: low library concentration; 72 h
# SkMel5 = details: library dose: low library concentration; 72 h
# UACC257 = details: library dose: low library concentration; 72 h
# 501Mel = details: library dose: standard library concentration; 72 h
# A101D = details: library dose: standard library concentration; 72 h
# A2058 = details: library dose: standard library concentration; 72 h
# A375 = details: library dose: standard library concentration; 72 h
compound,measurement,setting,value
"NC(=O)c1ccc(N(C(N)=O)c2c(F)cccc2F)nc1-c1ccc(F)cc1F + CC(=O)O[C@@]12CO[C@@H]1C[C@H](O)[C@@]1(C)C(=O)[C@H](O)C3=C(C)[C@@H](OC(=O)[C@H](O)[C@@H](NC(=O)OC(C)(C)C)c4ccccc4)C[C@@](O)([C@@H](OC(=O)c4ccccc4)[C@H]21)C3(C)C [Docetaxel] (first compound 0.4 µM, partner dose 0.0001 µM)",cell count,MZ2-MEL,57.9%
same,cell count,MeWo,56.9%
same,cell count,RPMI7951,41.4%
same,cell count,RVH-421,70.2%
same,cell count,SkMel28,63.2%
same,cell count,SkMel30,56.7%
same,cell count,UACC62,46.4%
same,cell count,WM115,78.3%
same,cell count,WM1716,63.3%
same,cell count,WM1745,58.9%
same,cell count,WM3526,44.6%
same,cell count,WM3619,62.3%
same,cell count,WM451Lu,66.1%
"NC(=O)c1ccc(N(C(N)=O)c2c(F)cccc2F)nc1-c1ccc(F)cc1F + CS(=O)(=O)c1ccc(C(=O)Nc2ccc(Cl)c(-c3ccccn3)c2)c(Cl)c1 [vismodegib] (first compound 0.4 µM, partner dose 1 µM)",cell count,MeWo,140%
same,cell count,RPMI7951,126%
same,cell count,RVH-421,95.9%
same,cell count,SkMel28,102%
same,cell count,SkMel2,106%
same,cell count,SkMel30,127%
same,cell count,UACC62,93.3%
same,cell count,WM115,100%
same,cell count,WM1716,150%
same,cell count,WM1745,115%
same,cell count,WM3526,118%
same,cell count,WM3619,96.7%
same,cell count,WM451Lu,113%
"CCCCCCCCc1ccc(CCC(N)(CO)CO)cc1 [fingolimod] + COc1cc(N2CCC(N3CCN(C)CC3)CC2)ccc1Nc1ncc(Cl)c(Nc2ccccc2S(=O)(=O)C(C)C)n1 [NVP-TAE684] (first compound 2 µM, partner dose 0.08 µM)",cell count,MeWo,83.2%
same,cell count,RPMI7951,92.5%
same,cell count,RVH-421,71.4%
same,cell count,SkMel28,73.8%
same,cell count,SkMel30,85.3%
same,cell count,SkMel5,72.1%
same,cell count,UACC257,80.6%
same,cell count,UACC62,74.9%
same,cell count,WM115,92.1%
same,cell count,WM1716,83.6%
same,cell count,WM1745,67.6%
same,cell count,WM3526,66.3%
same,cell count,WM3619,97.2%
same,cell count,WM451Lu,91.2%
"COc1cc2c(Oc3ccc4[nH]c(C)cc4c3F)ncnc2cc1OCCCN1CCCC1 [cediranib] + CCc1ccc(CCOc2ccc(CC3SC(=O)NC3=O)cc2)nc1 [pioglitazone] (first compound 0.4 µM, partner dose 2 µM)",cell count,MZ2-MEL,99.2%
same,cell count,MeWo,108%
same,cell count,RPMI7951,104%
same,cell count,RVH-421,87.1%
same,cell count,SkMel28,84%
same,cell count,SkMel30,124%
same,cell count,SkMel5,111%
same,cell count,UACC257,98.2%
same,cell count,UACC62,93.6%
same,cell count,WM115,102%
same,cell count,WM1716,106%
same,cell count,WM1745,81.2%
same,cell count,WM3526,110%
same,cell count,WM3619,82.8%
same,cell count,WM451Lu,109%
"CC(C)(C)c1cnc(CSc2cnc(NC(=O)C3CCNCC3)s2)o1 + O=C(Nc1ccccc1)c1cc([N+](=O)[O-])ccc1Cl [GW9662] (first compound 0.01 µM, partner dose 2 µM)",cell count,MZ2-MEL,94.5%
same,cell count,MeWo,104%
same,cell count,RPMI7951,89.6%
same,cell count,RVH-421,86.3%
same,cell count,SkMel28,110%
same,cell count,SkMel30,130%
same,cell count,SkMel5,104%
same,cell count,UACC257,85.8%
same,cell count,UACC62,93.2%
same,cell count,WM115,94.9%
same,cell count,WM1716,96%
same,cell count,WM1745,103%
same,cell count,WM3526,124%
same,cell count,WM3619,108%
same,cell count,WM451Lu,82.6%
"CC(C)(C)c1cnc(CSc2cnc(NC(=O)C3CCNCC3)s2)o1 + Cn1cc(/C=C2\C(=O)Nc3cccnc32)c2ccccc21 [GW441756] (first compound 0.05 µM, partner dose 2 µM)",cell count,501Mel,76.1%
same,cell count,A101D,83.6%
same,cell count,A2058,91.6%
same,cell count,A375,112%
"CN(NC(=O)CC(=O)NN(C)C(=S)c1ccccc1)C(=S)c1ccccc1 + O=c1cc(-c2cccc3c2Sc2ccccc2S3)oc(N2CCOCC2)c1 [KU55933] (first compound 0.03 µM, partner dose 5 µM)",cell count,501Mel,7.44%
same,cell count,A101D,58.5%
same,cell count,A2058,11.3%
same,cell count,A375,128%
"CCCCCCCCc1ccc(CCC(N)(CO)CO)cc1 [fingolimod] + O=C1NC(=O)/C(=C/c2ccc(-c3ccc(F)cc3O)o2)S1 [AS252424] (first compound 10 µM, partner dose 5 µM)",cell count,501Mel,3.02%
same,cell count,A101D,4.08%
same,cell count,A2058,3.13%
same,cell count,A375,26.6%
"NC(=O)c1ccc(N(C(N)=O)c2c(F)cccc2F)nc1-c1ccc(F)cc1F + COc1ccc(COc2ccc(Cc3cnc(N)nc3N)cc2OC)cc1 [GW2580] (first compound 2 µM, partner dose 5 µM)",cell count,501Mel,106%
same,cell count,A101D,94%
same,cell count,A2058,97.3%
same,cell count,A375,147%
"CCc1ccc(CCOc2ccc(CC3SC(=O)NC3=O)cc2)nc1 (stereo unspecified) [pioglitazone] + N#Cc1c(O)c2c(-c3ccc(-c4ccccc4O)cc3)csc2[nH]c1=O [A769662] (first compound 10 µM, partner dose 10 µM)",cell count,501Mel,133%
same,cell count,A101D,105%
same,cell count,A2058,97%
same,cell count,A375,133%
"COc1cc2c(Oc3ccc4[nH]c(C)cc4c3F)ncnc2cc1OCCCN1CCCC1 [cediranib] + CCN(CC)CCCCNc1ncc2cc(-c3cc(OC)cc(OC)c3)c(NC(=O)NC(C)(C)C)nc2n1 [PD173074] (first compound 2 µM, partner dose 0.5 µM)",cell count,501Mel,71.6%
same,cell count,A101D,89.6%
same,cell count,A2058,99.8%
same,cell count,A375,141%
"COc1cc2c(Oc3ccc4[nH]c(C)cc4c3F)ncnc2cc1OCCCN1CCCC1 [cediranib] + CC(C)CCN1c2nc(Nc3cc(F)c(O)c(F)c3)ncc2N(C)C(=O)C1C [BID1870] (first compound 2 µM, partner dose 1 µM)",cell count,501Mel,58.7%
same,cell count,A101D,61%
same,cell count,A2058,87.9%
same,cell count,A375,114%
"CCc1ccc(CCOc2ccc(CC3SC(=O)NC3=O)cc2)nc1 (stereo unspecified) [pioglitazone] + COc1ccc(-c2ccc3c(N4CCOCC4)nc(N4C[C@@H](C)O[C@@H](C)C4)nc3n2)cc1CO [KU0063794] (first compound 10 µM, partner dose 0.1 µM)",cell count,501Mel,88.3%
same,cell count,A101D,101%
same,cell count,A2058,92.4%
same,cell count,A375,110%
"CN(NC(=O)CC(=O)NN(C)C(=S)c1ccccc1)C(=S)c1ccccc1 + COC(=O)c1sccc1S(=O)(=O)Nc1ccc(Nc2ccccc2)cc1OC [GSK0660] (first compound 0.03 µM, partner dose 5 µM)",cell count,501Mel,13.1%
same,cell count,A101D,57.8%
same,cell count,A2058,16.6%
same,cell count,A375,71.2%
"Cc1ccc(NC(=O)c2cccc(N(C)C)c2)cc1NC(=O)c1ccc(O)cc1 + N#Cc1c(O)c2c(-c3ccc(-c4ccccc4O)cc3)csc2[nH]c1=O [A769662] (first compound 10 µM, partner dose 10 µM)",cell count,501Mel,60.2%
same,cell count,A101D,96.7%
same,cell count,A2058,93.6%
same,cell count,A375,126%
"CCc1ccc(CCOc2ccc(CC3SC(=O)NC3=O)cc2)nc1 (stereo unspecified) [pioglitazone] + COc1ccc2c(c1)CCC1C2CCC2(C)C(NCCCCCCN3C(=O)C=CC3=O)CCC12 [U73122] (first compound 10 µM, partner dose 2 µM)",cell count,501Mel,99.9%
same,cell count,A101D,54%
same,cell count,A2058,55.4%
same,cell count,A375,78.6%
"CCCCCCCCc1ccc(CCC(N)(CO)CO)cc1 [fingolimod] + Cc1cc([N+](=O)[O-])ccc1NS(=O)(=O)c1cc(Cl)ccc1Cl [FH535] (first compound 10 µM, partner dose 5 µM)",cell count,501Mel,0.855%
same,cell count,A101D,6.67%
same,cell count,A2058,37.4%
same,cell count,A375,72.6%
"CCCCCCCCc1ccc(CCC(N)(CO)CO)cc1 [fingolimod] + CCCCCCCCCCCC1=C(O)C(=O)C=C(O)C1=O [Embelin] (first compound 10 µM, partner dose 6 µM)",cell count,501Mel,0.937%
same,cell count,A101D,10.8%
same,cell count,A2058,10.1%
same,cell count,A375,76.1%
"CC(C)(C)c1cnc(CSc2cnc(NC(=O)C3CCNCC3)s2)o1 + COc1ccc(-c2ccc3c(N4CCOCC4)nc(N4C[C@@H](C)O[C@@H](C)C4)nc3n2)cc1CO [KU0063794] (first compound 0.05 µM, partner dose 0.1 µM)",cell count,501Mel,95.6%
same,cell count,A101D,76.2%
same,cell count,A2058,80.3%
same,cell count,A375,87.8%
